Measurements: PubChem BioAssay AID886 (National Center for Advancing Translational Sciences (NCATS), 2007)
Where “and” joins values, the source holds several entries; their conditions need not be identical. Identical values can stand only once. The campaign covered roughly 73,000 compounds. About 2,500 (3.4%) were called active. Inconclusive results, whose numbers are uncertain, are shown with a selection of clear calls. Calls come from the whole dose curve; as a rule, active = well fitted inhibition curve with a large enough effect; inconclusive = small, poorly fitted or top-dose-only effect; inactive = no such curve, though single readings can be large or run the other way. A potency beside an inconclusive call is a rough fit, not a confirmed value. Where a structure was tested more than once in an assay, its records may differ in their call.

Target: 3-hydroxyacyl-CoA dehydrogenase type-2 (Homo sapiens) (UniProt Q99714)
UniProt Q99714, sequence (Q99714 whole entry, looked up): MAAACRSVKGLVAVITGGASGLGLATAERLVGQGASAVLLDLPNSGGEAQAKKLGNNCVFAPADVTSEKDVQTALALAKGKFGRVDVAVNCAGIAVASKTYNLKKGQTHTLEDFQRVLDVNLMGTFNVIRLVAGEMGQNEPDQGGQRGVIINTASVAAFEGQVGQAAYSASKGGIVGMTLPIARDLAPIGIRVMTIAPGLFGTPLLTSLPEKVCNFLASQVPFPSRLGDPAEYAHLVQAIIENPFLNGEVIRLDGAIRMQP
UniProt Q99714, sequence (Q99714 whole entry, looked up): as above
Assay: qHTS Assay for Inhibitors of HADH2 (Hydroxyacyl-Coenzyme A Dehydrogenase, Type II); note: nearly all actives have a fitted effect of over 60% in size
Settings: recombinant HADH2, NADH fluorescence, beta-hydroxybutyryl-CoA; series mostly up to 57.1 µM
In short: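 Read-out: 360 nm excitation, 450 nm emission, kinetic over 4 min. Conditions: His-tagged human HADH2 20 nM, pH 9.0 Tris with Tween-20, 1 mM NAD+, 90 uM beta-hydroxybutyryl-CoA.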
% is set by controls: 0 for no effect and ±100 for the full control effect; potency is the fitted concentration of half-maximal effect; tags give direction and shape of the fitted curve.

Compound | Potency | activity change, negative = inhibition
O=C1C[C@@H](c2ccc(O)cc2)Oc2cc(O)cc(O)c21 | inconclusive: 20 µM [inhibitor, partial curve, poor fit] | 
O=S(=O)(O)c1cc(O)ccc1O | active: 0.251 µM | 
COc1ccc2c(c[n+](C)c3c4cc5c(cc4ccc23)OCO5)c1OC | active: 20 µM | 
CCOC(=O)c1ncn2c1[C@H]1CCCN1C(=O)c1cc(OC)ccc1-2 | inactive and inconclusive: 6.31 µM [inhibitor, single point] | 
COc1cc(CC2C(=O)N(C)C(=O)N(C)C2=O)ccc1OCc1ccccc1 | inconclusive: 39.8 µM [inhibitor, single point] | 
Nc1c(C(=O)Nc2ccc([As](=O)(O)O)cc2)cnc2nnnn12 |  | inactive: 11.1% [at 11.4 µM]
COc1ccc(CC2C(=O)NC(=O)N(c3ccccc3)C2=O)c(OC)c1 (centres undefined) | inconclusive: 39.8 µM [inhibitor, single point] | 
COCCCn1c(N)c(C(=O)OC(C)COC)c2nc3ccccc3nc21 (centres undefined) | inconclusive: 31.6 µM [inhibitor, single point] | 
COc1ccccc1N1C(=O)NC(=O)C2(Cc3cc(C)ccc3N(C)C2)C1=O (centres undefined) | inactive | 
O=C1C(Cl)=C(N2CCCCCC2)C(=O)N1c1ccccc1 | inconclusive: 31.6 µM [inhibitor, single point] | 
C[C@@]12CC[C@H]3[C@@H](CC=C4C[C@H](OS(=O)(=O)O)CC[C@]43C)[C@H]1CCC2=O | inactive | 
C[N+]1(C)CCN(c2ccccc2)CC1 | inconclusive: 39.8 µM [inhibitor, single point] | 
CC[C@@H](CO)NC(=O)[C@H]1C=C2c3cccc4c3c(cn4C)C[C@H]2N(C)C1 | active: 5.01 µM | 
Nc1c(C(=O)NC2CCCC2)c2nc3ccccc3nc2n1CC1CCCO1 (centres undefined) | inactive | 
CC[C@H](CO)NC(=O)[C@@H]1C=C2c3cccc4[nH]cc(c34)C[C@@H]2N(C)C1 | active: 25.1 µM | 
CC1(C)Cc2c(sc3c2C(=O)NC(c2cccnc2)N3)CO1 (centres undefined) | inconclusive: 31.6 µM [inhibitor, single point] | 
CC(C)[C@@]1(NC(=O)[C@@H]2C=C3c4cccc5[nH]cc(c45)C[C@@H]3N(C)C2)O[C@]2(O)[C@H]3CCCN3C(=O)[C@H](Cc3ccccc3)N2C1=O | inconclusive: 39.8 µM [inhibitor, single point] | 
Nc1nc2[nH]c(=O)cnc2c(=O)[nH]1 | inconclusive: 25.1 µM [inhibitor, single point] | 
NC(=O)COc1c(F)cc(SCCNS(=O)(=O)c2ccccc2)cc1F | inconclusive: 39.8 µM [inhibitor, single point] | 
CN1CCN(C(=O)COc2ccc(-c3nc4ccccc4s3)cc2)CC1 | inconclusive: 39.8 µM [inhibitor, single point] | 
Cc1cccc(N2C(=O)CC(=O)NC2=O)c1 | inconclusive: 20 µM [inhibitor, partial curve, poor fit] | 
Cc1ccc2cc3cc(C(=O)N4CCC5(CC4)OCCO5)oc3nc2c1 | active: 25.1 µM | 
Cn1c2ccccc2c2c(C(=O)N3CCC4(CC3)OCCO4)cn(C3CCCC3)c(=O)c21 | inconclusive: 31.6 µM [inhibitor, single point] | 

Compound | Potency | activity change, negative = inhibition
O=c1[nH]c(=O)n(Cc2ccco2)c(O)c1C=NCc1cccs1 | inactive | 
COc1ccc2c3c([nH]c2c1)C(C)=NCC3 | active: 39.8 µM | 
C[C@@H](CO)NC(=O)[C@H]1C=C2c3cccc4[nH]cc(c34)C[C@H]2N(C)C1 | active: 39.8 µM | 
N[C@@H]1C=CC=C(C(=O)O)C1 | inconclusive: 25.1 µM [inhibitor, single point] | 
Cc1cc(SCc2sc(-c3ccc(C(F)(F)F)c(F)c3)nc2C)ccc1OCC(=O)O | inconclusive: 5.01 µM [inhibitor, partial curve] | 
Nc1ccc(-c2ccc(N)c(Cl)c2)cc1Cl | inactive | 
Cc1noc(C)c1CSc1nc2cc(S(=O)(=O)N3CCOCC3)ccc2o1 | inconclusive: 1.26 µM [inhibitor, full curve] | 
O=C1NC(=O)C(Cc2cccs2)C(=O)N1 | inconclusive: 25.1 µM [inhibitor, partial curve] | 
Cc1ccc(S(=O)(=O)N[C@@H](CCCCN)C(=O)CCl)cc1 | inactive | 
CCCNS(=O)(=O)c1ccc(OCC(=O)N2CCN(Cc3ccc4c(c3)OCO4)CC2)cc1 | inconclusive: 31.6 µM [inhibitor, single point] | 
Nc1cc(Cl)ccc1O | inconclusive: 2.51 µM [inhibitor, full curve] | 
CC12CN3CC(C)(CN(C1)P3(=O)Oc1ccccc1)C2=O (centres undefined) | inconclusive: 6.31 µM [inhibitor, single point] | 
COc1ccc2c(c1OC)C(=O)OC2c1c(O)n(Cc2ccc(F)cc2)c(=O)[nH]c1=O (centres undefined) | inconclusive: 12.6 µM [inhibitor, partial curve] | 
c1nnn(C23CC4CC(CC(C4)C2)C3)n1 | inconclusive: 7.94 µM [inhibitor, single point] | 
CC12CCC(=O)C=C1CCC1C2CCC2(C)C(O)CCC12 (centres undefined) | inconclusive: 25.1 µM [inhibitor, partial curve] | 
CC(C)C[C@H]1C(=O)N2CCC[C@@H]2[C@]2(O)O[C@](NC(=O)[C@H]3C=C4c5cccc6[nH]cc(c56)C[C@H]4N(C)C3)(C(C)C)C(=O)N12 | inconclusive: 39.8 µM [inhibitor, single point] | 
CC(C)(C)NC[C@H](O)c1ccccc1Cl | inactive | 
C=C1CC[C@H](O)C/C1=C/C=C1\CCC[C@]2(C)[C@@H]([C@H](C)CCCC(C)C)CC[C@@H]12 | inconclusive: 31.6 µM [inhibitor, single point] | 
CC[C@@]1(O)C(=O)OCc2c1cc1n(c2=O)Cc2cc3c(NC(=O)CN)cccc3nc2-1 | active: 3.16 µM | 
CC(=O)Oc1ccccc1C(=O)Nc1ncc([N+](=O)[O-])s1 | inconclusive: 12.6 µM [inhibitor, partial curve] | 
O=P(O)(OP(=O)(O)c1ccccc1)c1ccccc1 (tested in a mixture with another compound) |  | inactive: 1.55% [at 11.4 µM]
Cc1[nH]ccc2c1[nH]c1cc(=O)ccc12 | active: 12.6 µM and active: 31.6 µM | 
FC(F)(F)c1nc2ccc(SSc3ccc4nc(C(F)(F)F)[nH]c4c3)cc2[nH]1 | active: 1 µM | 

Compound | Potency | activity change, negative = inhibition
CCCN1CCc2cc(O)cc3c2[C@H]1Cc1ccc(O)c(O)c1-3 | active: 3.16 µM | 
CCOP(=S)(OCC)SCOC(=O)NCC(=O)OC | inconclusive: 39.8 µM [inhibitor, single point] | 
COc1cc(CCN)ccc1O | inactive | 
CN(C)C(=O)Nc1ccc(Cl)cc1 | inactive | 
N#CC1=C(N)Oc2n[nH]c(-c3ccccc3)c2C1c1ccncc1 (centres undefined) | inconclusive: 7.94 µM [inhibitor, full curve] | 
S=C=Nc1cccc2ccccc12 | active: 25.1 µM | 
CN(C)C(=S)SSC(=S)N(C)C | active: 0.0501 µM | 
CN(C)c1ccc(N(C)C)cc1 | active: 3.16 µM | 
CCC(=Nc1ccc(OC)cc1OC)c1c(O)n(C)c(=O)n(C)c1=O | inconclusive: 7.94 µM [inhibitor, single point] | 
Cc1cc(OCC(=O)Nc2cc(C)nn2-c2ccccn2)c2c3c(c(=O)oc2c1)CCC3 | inconclusive: 2.51 µM [inhibitor, partial curve] | 
COc1ccc(C(CC(=O)N2CCC3(CC2)OCCO3)NS(=O)(=O)c2ccc(C)cc2)cc1 (centres undefined) | inconclusive: 25.1 µM [inhibitor, single point] | 
COc1cccc(C(C#N)N2CCCCC2)c1O (centres undefined) | inconclusive: 12.6 µM [inhibitor, partial curve] | 
Oc1cc(Cl)ccc1Cl | inconclusive: 31.6 µM [inhibitor, partial curve] | 
Cn1c2ccccc2c2c(C(=O)N3CCC4(CC3)OCCO4)cn(C3CCCCC3)c(=O)c21 | active: 31.6 µM | 
Cc1cccn2c(=O)c3c(nc12)N1CCC(Cc2ccccc2)CC1C1(C3)C(=O)N(C)C(=O)N(C)C1=O (centres undefined) | inconclusive: 39.8 µM [inhibitor, single point] | 
CC(=O)OCC1=C(C(=O)O)N2C(=O)[C@@H](N)[C@@H]2SC1 | inconclusive: 0.316 µM [inhibitor, full curve, poor fit] | 
C1CCC(NC2CCCCC2)CC1 | inconclusive: 31.6 µM [inhibitor, partial curve] | 
COCCOC(=O)c1c(N)n(Cc2ccc(OC)cc2)c2nc3ccccc3nc12 | inconclusive: 39.8 µM [inhibitor, single point] | 
COc1cc2c(cc1OC)[C@@]13CCN4CC5=CCO[C@H](CC(=O)O)[C@@H]([C@H]1N2)[C@H]5C[C@H]43 |  | inactive: 1.42% [at 11.4 µM]
CC(C)[C@@]1(NC(=O)[C@H]2C[C@H]3c4cccc5[nH]cc(c45)C[C@@H]3N(C)C2)O[C@]2(O)[C@H]3CCCN3C(=O)[C@H](Cc3ccccc3)N2C1=O | inactive | 
C=CCn1c(O)c(C=Nc2ccc(OC)cc2C)c(=O)[nH]c1=O | inconclusive: 25.1 µM [inhibitor, single point] | 
O=C1NC(=O)N(Cc2ccccc2Cl)C(=O)/C1=C/N1CCOCC1 | inconclusive: 25.1 µM [inhibitor, partial curve] | 
O=C(c1cc2nc(-c3ccccc3)cc(-c3ccccc3)n2n1)N1CCC2(CC1)OCCO2 | inconclusive: 39.8 µM [inhibitor, single point] | 
